In article PMC6919601, “Identification of Plasmodium dipeptidyl aminopeptidase allosteric inhibitors by high throughput screening” (PLoS ONE, 2019):
The campaign covered roughly 110,000 compounds. About 230 (0.21%) showed an effect of 50% or more. This is one part of the list.

Each compound was assayed against DPAP1 (Plasmodium falciparum, UniProt Q8IIJ9) (assay: primary screen, percent inhibition; read by cleavage of a fluorogenic dipeptide substrate; higher = more effect of the substance).
Parameters: species or system P. falciparum D10 trophozoite lysates; single well
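Also: 30 min substrate incubation versus DMSO and 10 µM JCP410 controls.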

Sequence of DPAP1 (Q8IIJ9 whole entry, looked up): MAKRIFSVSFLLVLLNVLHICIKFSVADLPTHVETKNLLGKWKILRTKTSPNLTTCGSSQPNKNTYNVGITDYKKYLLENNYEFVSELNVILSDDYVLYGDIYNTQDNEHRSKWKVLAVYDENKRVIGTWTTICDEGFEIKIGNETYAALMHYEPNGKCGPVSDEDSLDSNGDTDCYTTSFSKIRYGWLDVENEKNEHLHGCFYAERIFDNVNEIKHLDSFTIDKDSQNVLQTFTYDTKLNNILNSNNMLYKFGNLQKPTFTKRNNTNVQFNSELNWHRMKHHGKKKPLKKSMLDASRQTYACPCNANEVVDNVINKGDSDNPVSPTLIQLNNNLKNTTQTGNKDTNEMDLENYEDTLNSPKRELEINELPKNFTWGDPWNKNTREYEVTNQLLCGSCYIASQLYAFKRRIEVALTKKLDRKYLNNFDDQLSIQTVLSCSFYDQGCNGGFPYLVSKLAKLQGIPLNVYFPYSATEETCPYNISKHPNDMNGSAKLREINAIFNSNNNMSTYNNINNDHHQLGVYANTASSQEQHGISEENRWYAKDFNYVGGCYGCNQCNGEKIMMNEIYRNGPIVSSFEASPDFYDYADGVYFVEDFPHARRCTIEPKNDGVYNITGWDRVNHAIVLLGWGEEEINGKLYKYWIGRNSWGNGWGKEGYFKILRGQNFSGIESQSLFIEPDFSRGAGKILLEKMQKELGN

Point of comparison: `Cc1c(CNC(C)(C)C)c(C(=O)O)c(C)n1Cc1ccccc1F`, “% Inhibition @ 10 uM” value -5.49%. Against it:
- CCCCc1ccc(C2=N/C(=C\c3ccco3)C(=O)O2)cc1 — higher, 0.264%
- CCOC(=O)c1cc2c(=O)n3cc(C)ccc3nc2n(CCc2ccccc2)c1=N — lower, -9.1%
- O=C(OCc1nc2ccccc2s1)c1ccc(F)cc1 — higher, 5.94%
- COc1ccc(C(=O)N2CCN(Cc3cc(Br)ccc3OC)CC2)cc1 — higher, -1.24%
- Nc1ncc(Br)cc1S(=O)(=O)N(CCO)Cc1ccccc1 — higher, 0.655%
- COc1ccc(NC(=O)COc2ccc(N(C)S(=O)(=O)c3ccc(C)cc3)cc2)cc1 — lower, -7%
- O=S(=O)(NC1CCN(Cc2ccccc2)CC1)c1ccc(-n2cccn2)cc1 — higher, 9.52%
- CN(C)S(=O)(=O)c1cccnc1N1CCN(CCO)CC1 — higher, -5.28%
- COc1ccc(-c2nc3ccccc3[nH]2)cc1 — higher, -1.29%
- Cc1cccc(C(=O)Nc2ccccc2C(F)(F)F)c1 — lower, -6.12%
- CCc1nnc(NC(=O)c2cc3ccccc3c(=O)o2)s1 — higher, 0.221%
- COc1cc(OC)c2nc(C)cc(Cl)c2c1 — higher, 2.77%
- CC1CCCC(NC(=O)C2CCN(c3ncnc4c3nc3n4CCCCC3)CC2)C1C (centres unmarked) — higher, 3.27%
- O=C(O)c1ccccc1NC1OC(CO)C(O)C(O)C1O (centres unmarked) — higher, 1.66%
- Cc1ccc(C(=O)O)cc1-c1ccc(/C=C2/NC(=O)N(Cc3ccccc3F)C2=O)o1 — higher, -3.63%
- COc1ccc(CCNC(=O)Cn2nc(C)n3c(cc4cc(C)ccc43)c2=O)c(OC)c1 — higher, 0.0198%
- O=C1CCCN2N=C(SCc3ccccc3)SC2=N1 — higher, 3.94%
- O=C1CC(=O)N2N=C(Cc3ccccc3)SC2=N1 — higher, 0.219%
- Clc1ccc(-n2ncc3c(NCCN4CCOCC4)ncnc32)cc1 — higher, -5.01%
- COc1ccc(OC)c(CN2CCN(Cc3cccnc3)CC2)c1 — lower, -8.37%
- COC(=O)c1cc(S(=O)(=O)N(Cc2ccccn2)C2CCN(C)CC2)c[nH]1 — lower, -8.65%
- CCOC(=O)C1CCN(Cc2c(C)[nH]c3ccccc23)CC1 — higher, 2.23%
- CN1CCN(c2ccc(NC(=O)c3cccc(Cl)c3Cl)cc2)CC1 — higher, -2.8%
- Cc1ccc(S(=O)(=O)NC(C)(C)CSc2ncccn2)cc1 — lower, -8.7%
- COC(=O)c1ccc(NC(=O)c2ccccc2C(=O)O)cc1 — higher, 0.266%
- O=C(c1cccc2ccccc12)c1nc2c(n1O)CCCCC2 — higher, -1.81%
- Cc1ccc(/C=C(\C#N)c2nc(O)c3ccccc3n2)o1 — higher, 2.26%
- O=C(c1cccnc1)N1N=C(c2ccc(Br)cc2)CC1c1nc2ccccc2[nH]1 (centres unmarked) — lower, -7.7%
- O=C(O)c1cc(N2C(=O)c3ccccc3C2=O)cc(N2C(=O)c3ccccc3C2=O)c1 — higher, 1.64%
- CCCCOc1ccc(C(=O)Nc2cc(-c3ccccc3)no2)cc1 — higher, 0.0367%
- CC1(C)CC(=O)C(/C=N/c2ccc(S(N)(=O)=O)cc2)=C(O)C1 — higher, -4.67%
- Cc1ccc(Nc2ncccc2C(N)=O)cc1 — higher, 0.643%
- CCN1C2=C(C(=O)CC(C)(C)C2)C(c2ccc(OC)c(C(=O)O)c2)C2=C1CC(C)(C)CC2=O — higher, 0.13%
- O=C(NCCc1ccccc1)c1ccc(Br)o1 — higher, -2.42%
- Cc1cc(=O)oc(C)c1C(=O)NC1CCCc2ccccc21 (centres unmarked) — higher, -2.26%
- O=C(NC(=S)N1CCSCC1)c1cccnc1 — higher, -5.11%
- CC1=C(C(=O)OCc2ccc3c(c2)OCO3)C(c2ccccc2C)CC(=O)N1 (centres unmarked) — higher, -0.396%
- O=C(NCc1ccccc1)c1sc2ccccc2c1Cl — higher, -4.03%
- CCOC(=O)N1CCC2(CC1)OC(=O)C(C)=C2C(=O)NCCCOC — higher, -2.41%
- COCc1cc(C)nc2sc3c(c12)NC(c1ccccc1C(=O)O)n1c-3nc2ccccc21 (centres unmarked) — higher, 4.19%
- Cc1cc(C)c(S(=O)(=O)N2CCN(c3ccc(F)cc3)CC2)c(C)c1 — lower, -6.86%
- CCCCN1COc2ccc3c(-c4ccccc4)cc(=O)oc3c2C1 — higher, 3.61%
- CN(C)c1cc(NC(=O)Cc2ccccc2)c2ccccc2n1 — higher, -4.96%
- O=c1c2cc3ccccc3n2cnn1Cc1ccccc1F — higher, 1.72%
- N#C/C(=C\c1ccc2c(c1)OCO2)C(=O)NC1CCS(=O)(=O)C1 (centres unmarked) — lower, -9.6%
- CC1=C(C(=O)Nc2ccccn2)C(c2ccc(C(C)C)cc2)n2ncnc2N1 (centres unmarked) — higher, 2.32%
- N#CC1=C(N)Oc2[nH]nc(-c3ccccc3)c2C1c1cccs1 (centres unmarked) — higher, 4.39%
- O=C(Cc1ccccc1)NCc1ccco1 — higher, -4.4%
- Cc1ccc(C)c(NC(=O)Nc2ccc(Cl)cc2)c1 — higher, -4.04%
- Cn1c(=O)c2c(nc(Cl)n2Cc2ccc(F)cc2Cl)n(C)c1=O — higher, 1.64%
- COc1ccc(S(=O)(=O)N(CC(=O)NC2CCCCCC2)c2ccccc2)cc1OC — higher, -2.21%
- Brc1ccc(/C=N/n2cnnc2)o1 — lower, -5.7%
- Oc1nc2ccccc2nc1-c1ccccc1NCc1ccc(F)cc1 — higher, 5.68%
- CC(C)NCC(O)COc1ccc(C(C)(C)C)cc1 (centres unmarked) — higher, 3%
- COc1ccc2nc(N3CCCC(C(=O)NCCCN4C(C)CCCC4C)C3)sc2c1 (centres unmarked) — higher, -2.12%
- CCN1CCN(C(=O)c2ccc(NS(=O)(=O)c3c(C)c(C)cc(C)c3C)cc2)CC1 — higher, -2.85%
- COc1ccc(Cl)cc1-c1noc(-c2ccc3c(c2)OCO3)n1 — higher, -0.671%
- CNS(=O)(=O)c1ccc(N2CCCC2=O)cc1 — higher, -0.128%
- Cc1ccccc1CN(c1ccc(C(=O)N2CCC(C)CC2)cc1)S(C)(=O)=O — higher, 2.05%
- CCc1cccc(CC)c1NC(=O)CN1C(=O)c2ccccc2S1(=O)=O — lower, -7.94%
- O=C(Nc1ccc(N2CCN(C(=O)c3cccs3)CC2)cc1)c1cccnc1Cl — higher, -0.872%
- O=C(Nc1ccc(Cl)cc1Cl)c1ccc(C(=O)Nc2ccc(Cl)cc2Cl)cc1 — higher, -0.856%
- N#CCNC(=O)[C@H](CNS(=O)(=O)c1ccccc1)NC(=O)N1CCOCC1 — higher, -0.214%
- Cc1ccc(OCc2nnc(NC(=O)c3ccccc3C)s2)c(C)c1 — higher, 20.7%
- CCCCc1c(C)nc2ccc(OC)cc2c1O — higher, 1%
- CN1CCN(C2CC(=O)N(c3ccc(Oc4ccccc4)cc3)C2=O)CC1 (centres unmarked) — higher, -4.15%
- O=C(NCCCN1CCCC1=O)c1cc2c(O)nc3ccccc3c2s1 — higher, 1.23%
- C=CCNC(=O)c1c(C)c(C(=O)OCC)n(Cc2ccccc2)c1C — higher, -3.44%
- COc1ccc(-c2ccccc2)cc1NCc1c(F)cccc1Cl — higher, -4.14%
- COC1=CCC2=C(CCNC2Cc2ccc(O)cc2)C1 (centres unmarked) — higher, 2.5%
- CCOC(=O)C1=C(CS(=O)(=O)c2ccc(C)c(C)c2)NC(=O)NC1c1ccc(F)cc1 (centres unmarked) — higher, 4.41%
- CN(CCNC(=O)C1CCN(S(=O)(=O)c2cccc3nonc23)CC1)Cc1ccccc1 — higher, 3.5%
- Cc1ccc(OCC(=O)Nc2ccc(CN3CCCCC3)cc2)cc1 — higher, -3.49%
- Cc1cc(C)nc(SCCC(=O)Nc2ccccc2)n1 — higher, -3.45%
- CCOC(=O)C1=C(CS(=O)(=O)c2ccc(C)c(C)c2)NC(=O)NC1c1ccc(C)cc1 (centres unmarked) — lower, -5.79%
- CCOc1cc(C2Nc3ccc4ccccc4c3C3=C2C(=O)CC(C)(C)C3)ccc1O (centres unmarked) — higher, 9.67%
- O=C(NCCCN1CCOCC1)C1CCN(S(=O)(=O)N2CCCCC2)CC1 — higher, -3.12%
- COc1cc(OC)c(CN2CCCC2)cc1Br — lower, -7.56%
- Cc1ccc(C(=O)CCC(=O)Nc2ccccc2C)cc1C — higher, -0.478%
- COc1ccccc1C1CC2=NC(C)=C(C(=O)OC(C)C)C(c3cccs3)C2=C(O)C1 (centres unmarked) — higher, -5.01%
- Nc1n[nH]c(Cc2n[nH]c(N)n2)n1 — higher, 1.84%
- O=C(NC1CC1)C1CSC(c2cccnc2)=N1 (centres unmarked) — higher, 1.27%
- COCCNC(=O)c1ccccc1F — higher, -1.15%
- COc1ccc(OC)c(S(=O)(=O)NCc2ccccn2)c1 — higher, 5.67%
- N#CC1=C(N)Oc2c(ccc3ccccc23)C1c1ccccc1C(F)(F)F (centres unmarked) — higher, -4.04%
- C/C(Cl)=C\CSc1nc2c(c(=O)[nH]c(=O)n2C)n1Cc1cccc(Br)c1 — higher, 11.6%
- O=C(Nc1nccs1)c1ccc2c(c1)CC(c1ccccc1)OC2=O (centres unmarked) — higher, 3.81%
- N#CCCn1c(-c2ccccc2)cc2ccccc21 — lower, -8.3%
- CC(=O)c1ccc(N(CN2C(=O)c3ccc(Br)cc3C2=O)C(C)=O)cc1 — higher, 14.4%
- CCCOc1ccc(S(=O)(=O)NCc2ccc3c(c2)OCO3)cc1 — lower, -6.39%
- O=C(COc1ccccc1)Nc1ccc(F)cc1 — higher, 3.74%
- COc1ccc(S(=O)(=O)NCc2ccc(C(=O)N3CCc4ccccc4C3)cc2)cc1 — higher, -1.76%
- Cc1ccc(C)c(NC(=O)c2ccco2)c1 — lower, -9.82%
- O=C1CC(c2ccccc2)CC(=O)C1=CNc1ccc(Br)cc1 (centres unmarked) — higher, -4.61%
- CC(C)(C)c1ccc2c(c1)C1c3ccc(C(C)(C)C)cc3C2C2C(=O)N(c3ccc(Oc4ccc(Br)cc4)cc3)C(=O)C12 (centres unmarked) — higher, -3.38%
- CCCN(c1ccccc1C)S(=O)(=O)c1ccc(Cl)cc1 — higher, 3.61%
- CCOC(=O)N1CCC(N2Cc3cccc(C(=O)NC(C)c4ccc5c(c4)OCCO5)c3C2=O)CC1 (centres unmarked) — higher, 24.6%
- COc1ccc(-n2nc3c(N4CCCC(C(=O)NCc5ccccn5)C4)nnc(C)c3c2C)cc1 (centres unmarked) — higher, -2.87%
- CC(C)C[C@H](NC(=O)c1cc(-c2ccco2)c(Cl)s1)C(=O)NCC#N — higher, -1.82%
- CCOC(=O)c1cc(-c2ccc(F)cc2)n(CC(=O)Nc2cccnc2)c1C — higher, -1.88%
